The text below walks through data of paper PMC4306531 (Chemistry & Biology, 2015).

For assay [1], the target named is eukaryotic initiation factor 3 subunit a (eIF3a/Tif32) (Saccharomyces cerevisiae, UniProt P38249). Briefly: native MS + cross-linking.
In assay [2] the target is eukaryotic initiation factor 3 subunit c (eIF3c/Nip1) with C-terminal TAP-tag (Saccharomyces cerevisiae, UniProt P32497). As to the kind of experiment: native MS + cross-linking.
Sequence of UniProt P32497 (P32497 whole entry): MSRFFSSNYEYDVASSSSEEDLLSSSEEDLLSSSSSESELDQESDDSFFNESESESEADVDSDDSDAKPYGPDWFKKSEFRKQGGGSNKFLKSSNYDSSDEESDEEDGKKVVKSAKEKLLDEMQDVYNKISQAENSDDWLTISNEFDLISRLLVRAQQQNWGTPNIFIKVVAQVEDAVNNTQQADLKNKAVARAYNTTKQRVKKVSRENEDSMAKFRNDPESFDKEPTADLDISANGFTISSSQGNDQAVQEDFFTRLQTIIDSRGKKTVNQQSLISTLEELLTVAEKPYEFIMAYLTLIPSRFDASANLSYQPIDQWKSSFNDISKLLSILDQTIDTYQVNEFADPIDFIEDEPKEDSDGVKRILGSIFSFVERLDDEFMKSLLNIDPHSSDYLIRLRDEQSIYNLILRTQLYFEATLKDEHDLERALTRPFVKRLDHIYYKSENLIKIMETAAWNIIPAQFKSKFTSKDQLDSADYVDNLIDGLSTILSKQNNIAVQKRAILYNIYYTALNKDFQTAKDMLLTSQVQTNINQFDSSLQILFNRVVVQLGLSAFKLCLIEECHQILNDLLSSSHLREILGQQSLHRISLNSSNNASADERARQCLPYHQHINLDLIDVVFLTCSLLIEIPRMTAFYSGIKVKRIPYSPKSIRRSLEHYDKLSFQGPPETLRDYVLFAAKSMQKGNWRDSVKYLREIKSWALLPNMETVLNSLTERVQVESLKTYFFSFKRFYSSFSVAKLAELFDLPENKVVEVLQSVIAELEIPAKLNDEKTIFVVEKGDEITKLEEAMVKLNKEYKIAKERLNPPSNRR

B1: eukaryotic initiation factor 3 subunit b (eIF3b/Prt1), form starting at Met40 (natural protein)
chain: not shown
As for B1, the binding result in assay [1] and in assay [2] was “binds” in each case.
